Consider 11 molecules from patent publication US11357864B2, “Antibody drug conjugates for ablating hematopoietic stem cells” (priority 2016, dated 2022).

First the molecules themselves.
B1: J11 (conjugate)
heavy: QVQLVQSGAEVKKPGSSVKVSCKASGGTFSSYAISWVRQAPGQGLEWMGTIGPFEGQPRYAQKFQGRVTITADESTSTAYMELSSLRSEDTAVYYCARGGYISDFDVWGQGTLVTVSSASTKGPSVFPLAPSSKSTSGGTAALGCLVKDYFPCPVTVSWNSGALTSGVHTFPAVLQSSGLYSLSSVVTVPSSSLGTQTYICNVNHKPSNTKVDKKVEPKSCDKTH
light: DIQMTQSPSSLSASVGDRVTITCRASQSISNYLAWYQQKPGKAPKLLIYDASSLQSGVPSRFSGSGSGTDFTLTISSLQPEDFATYYCQQYYYESITFGQGTKVEIKRTVAAPSVFIFPPSDEQLKSGTASVVCLLNNFYPREAKVQWKVDNALQSGNSQESVTEQDSKDSTYSLSSTLTLSKADYEKHKVYACEVTHQGLSSPVTKSFNRGEC
modifications: Compound (4) payload
B2: J21 (conjugate)
heavy: QVQLVQSGAEVKKPGSSVKVSCKASGGTFSSYAISWVRQAPGQGLEWMGTIGPFEGQPRYAQKFQGRVTITADESTSTAYMELSSLRSEDTAVYYCARGGYISDFDVWGQGTLVTVSSASTKGPSVFPLAPSSKSTSGGTAALGCLVKDYFPEPVTVSWNSGALTSGVHTFPAVLQSSGLYSLSSVVTVPSSSLGTQTYICNVNHKPSNTKVDKRVEPKSCDKTHTCPPCPAPELLG
light: DIQMTQSPSSLSASVGDRVTITCRASQSISNYLAWYQQKPGKAPKLLIYDASSLQSGVPSRFSGSGSGTDFTLTISSLQPEDFATYYCQQYYYESITFGQGTKVEIKRTVAAPSVFIFPPSDEQLKSGTASVVCLLNNFYPREAKVQWKVDNALQSGNSQESVTEQDSKDSTYSLSSTLTLSKADYEKHKVYACEVTHQGLSSPVTKSFNRGEC
modifications: Compound (5) payload, DAR 4
B3: J16 (conjugate)
heavy: QVQLVQSGAEVKKPGSSVKVSCKASGGTFSSYAISWVRQAPGQGLEWMGVIFPAEGAPGYAQKFQGRVTITADESTSTAYMELSSLRSEDTAVYYCARGGYISDFDVWGQGTLVTVSSASTKGPSVFPLAPSSKSTSGGTAALGCLVKDYFPEPVTVSWNSGALTSGVHTFPAVLQSSGLYSLSSVVTVPSSSLGTQTYICNVNHKPSNTKVDKRVEPKSCDKTHTCPPCPAPELLG
light: DIQMTQSPSSLSASVGDRVTITCRASQSISNYLAWYQQKPGKAPKLLIYDASSLQSGVPSRFSGSGSGTDFTLTISSLQPEDFATYYCQQYYYESITFGQGTKVEIKRTVAAPSVFIFPPSDEQLKSGTASVVCLLNNFYPREAKVQWKVDNALQSGNSQESVTEQDSKDSTYSLSSTLTLSKADYEKHKVYACEVTHQGLSSPVTKSFNRGEC
modifications: Compound (2) payload, DAR 4
B4: J14 (conjugate)
heavy: QVQLVQSGAEVKKPGSSVKVSCKASGGTFSSYAISWVRQAPGQGLEWMGVIFPAEGAPGYAQKFQGRVTITADESTSTAYMELSSLRSEDTAVYYCARGGYISDFDVWGQGTLVTVSSASTKGPSVFPLAPSSKSTSGGTAALGCLVKDYFPEPVTVSWNSGALTSGVHTFPAVLQSSGLYSLSSVVTVPSSSLGTQTYICNVNHKPSNTKVDKRVEPKSCDKTHTCPPCPAPELLG
light: DIQMTQSPSSLSASVGDRVTITCRASQSISNYLAWYQQKPGKAPKLLIYDASSLQSGVPSRFSGSGSGTDFTLTISSLQPEDFATYYCQQYYYESITFGQGTKVEIKRTVAAPSVFIFPPSDEQLKSGTASVVCLLNNFYPREAKVQWKVDNALQSGNSQESVTEQDSKDSTYSLSSTLTLSKADYEKHKVYACEVTHQGLSSPVTKSFNRGEC
modifications: mc-MMAF payload, DAR 4
B5: J18 (conjugate)
heavy: QVQLVQSGAEVKKPGSSVKVSCKASGGTFSSHALSWVRQAPGQGLEWMGGIIPSFGTADYAQKFQGRVTITADESTSTAYMELSSLRSEDTAVYYCARGLYDFDYWGQGTLVTVSSASTKGPSVFPLAPSSKSTSGGTAALGCLVKDYFPEPVTVSWNSGALTSGVHTFPAVLQSSGLYSLSSVVTVPSSSLGTQTYICNVNHKPSNTKVDKRVEPKSCDKTHTCPPCPAPELLG
light: DIQMTQSPSSLSASVGDRVTITCRASQDISQDLAWYQQKPGKAPKLLIYDASSLQSGVPSRFSGSGSGTDFTLTISSLQPEDFAVYYCQQYYYLPSTFGQGTKVEIKRTVAAPSVFIFPPSDEQLKSGTASVVCLLNNFYPREAKVQWKVDNALQSGNSQESVTEQDSKDSTYSLSSTLTLSKADYEKHKVYACEVTHQGLSSPVTKSFNRGEC
modifications: Compound (5) payload, DAR 4
B6: J19 (conjugate)
heavy: QVQLVQSGAEVKKPGSSVKVSCKASGGTFSSHALSWVRQAPGQGLEWMGGIIPSFGTADYAQKFQGRVTITADESTSTAYMELSSLRSEDTAVYYCARGLYDFDYWGQGTLVTVSSASTKGPSVFPLAPSSKSTSGGTAALGCLVKDYFPEPVTVSWNSGALTSGVHTFPAVLQSSGLYSLSSVVTVPSSSLGTQTYICNVNHKPSNTKVDKRVEPKSCDKTHTCPPCPAPELLG
light: DIQMTQSPSSLSASVGDRVTITCRASQDISQDLAWYQQKPGKAPKLLIYDASSLQSGVPSRFSGSGSGTDFTLTISSLQPEDFAVYYCQQYYYLPSTFGQGTKVEIKRTVAAPSVFIFPPSDEQLKSGTASVVCLLNNFYPREAKVQWKVDNALQSGNSQESVTEQDSKDSTYSLSSTLTLSKADYEKHKVYACEVTHQGLSSPVTKSFNRGEC
modifications: Compound (2) payload, DAR 4
B7: J22 (conjugate)
heavy: QVQLVQSGAEVKKPGSSVKVSCKASGGTFSSYAISWVRQAPGQGLEWMGTIGPFEGQPRYAQKFQGRVTITADESTSTAYMELSSLRSEDTAVYYCARGGYISDFDVWGQGTLVTVSSASTKGPSVFPLAPSSKSTSGGTAALGCLVKDYFPEPVTVSWNSGALTSGVHTFPAVLQSSGLYSLSSVVTVPSSSLGTQTYICNVNHKPSNTKVDKRVEPKSCDKTHTCPPCPAP
light: DIQMTQSPSSLSASVGDRVTITCRASQSISNYLAWYQQKPGKAPKLLIYDASSLQSGVPSRFSGSGSGTDFTLTISSLQPEDFATYYCQQYYYESITFGQGTKVEIKRTVAAPSVFIFPPSDEQLKSGTASVVCLLNNFYPREAKVQWKVDNALQSGNSQESVTEQDSKDSTYSLSSTLTLSKADYEKHKVYACEVTHQGLSSPVTKSFNRGEC
modifications: Compound (2) payload, DAR 4, native cysteine conjugation
B8: J10 (conjugate)
heavy: QVQLVQSGAEVKKPGSSVKVSCKASGGTFSSYAISWVRQAPGQGLEWMGTIGPFEGQPRYAQKFQGRVTITADESTSTAYMELSSLRSEDTAVYYCARGGYISDFDVWGQGTLVTVSSASTKGPSVFPLAPSSKSTSGGTAALGCLVKDYFPCPVTVSWNSGALTSGVHTFPAVLQSSGLYSLSSVVTVPSSSLGTQTYICNVNHKPSNTKVDKRVEPKSCDKTHTCPPCPAPELLG
light: DIQMTQSPSSLSASVGDRVTITCRASQSISNYLAWYQQKPGKAPKLLIYDASSLQSGVPSRFSGSGSGTDFTLTISSLQPEDFATYYCQQYYYESITFGQGTKVEIKRTVAAPSVFIFPPSDEQLKSGTASVVCLLNNFYPREAKVQWKVDNALQSGNSQESVTEQDSKDSTYSLSSTLTLSKADYEKHKVYACEVTHQGLSSPVTKSFNRGEC
modifications: Compound (5) payload
B9: J20 (conjugate)
heavy: QVQLVQSGAEVKKPGSSVKVSCKASGGTFSSYAISWVRQAPGQGLEWMGTIGPFEGQPRYAQKFQGRVTITADESTSTAYMELSSLRSEDTAVYYCARGGYISDFDVWGQGTLVTVSSASTKGPSVFPLAPSSKSTSGGTAALGCLVKDYFPEPVTVSWNSGALTSGVHTFPAVLQSSGLYSLSSVVTVPSSSLGTQTYICNVNHKPSNTKVDKRVEPKSCDKTHTCPPCPAP
light: DIQMTQSPSSLSASVGDRVTITCRASQSISNYLAWYQQKPGKAPKLLIYDASSLQSGVPSRFSGSGSGTDFTLTISSLQPEDFATYYCQQYYYESITFGQGTKVEIKRTVAAPSVFIFPPSDEQLKSGTASVVCLLNNFYPREAKVQWKVDNALQSGNSQESVTEQDSKDSTYSLSSTLTLSKADYEKHKVYACEVTHQGLSSPVTKSFNRGEC
modifications: mc-MMAF payload, DAR 4
B10: J17 (conjugate)
heavy: QVQLVQSGAEVKKPGSSVKVSCKASGGTFSSHALSWVRQAPGQGLEWMGGIIPSFGTADYAQKFQGRVTITADESTSTAYMELSSLRSEDTAVYYCARGLYDFDYWGQGTLVTVSSASTKGPSVFPLAPSSKSTSGGTAALGCLVKDYFPEPVTVSWNSGALTSGVHTFPAVLQSSGLYSLSSVVTVPSSSLGTQTYICNVNHKPSNTKVDKRVEPKSCDKTHTCPPCPAPELLG
light: DIQMTQSPSSLSASVGDRVTITCRASQDISQDLAWYQQKPGKAPKLLIYDASSLQSGVPSRFSGSGSGTDFTLTISSLQPEDFAVYYCQQYYYLPSTFGQGTKVEIKRTVAAPSVFIFPPSDEQLKSGTASVVCLLNNFYPREAKVQWKVDNALQSGNSQESVTEQDSKDSTYSLSSTLTLSKADYEKHKVYACEVTHQGLSSPVTKSFNRGEC
modifications: mc-MMAF payload, DAR 4
B11: J15 (conjugate)
heavy: QVQLVQSGAEVKKPGSSVKVSCKASGGTFSSYAISWVRQAPGQGLEWMGVIFPAEGAPGYAQKFQGRVTITADESTSTAYMELSSLRSEDTAVYYCARGGYISDFDVWGQGTLVTVSSASTKGPSVFPLAPSSKSTSGGTAALGCLVKDYFPEPVTVSWNSGALTSGVHTFPAVLQSSGLYSLSSVVTVPSSSLGTQTYICNVNHKPSNTKVDKRVEPKSCDKTHTCPPCPAPELLG
light: DIQMTQSPSSLSASVGDRVTITCRASQSISNYLAWYQQKPGKAPKLLIYDASSLQSGVPSRFSGSGSGTDFTLTISSLQPEDFATYYCQQYYYESITFGQGTKVEIKRTVAAPSVFIFPPSDEQLKSGTASVVCLLNNFYPREAKVQWKVDNALQSGNSQESVTEQDSKDSTYSLSSTLTLSKADYEKHKVYACEVTHQGLSSPVTKSFNRGEC
modifications: Compound (5) payload, DAR 4

The data set in a line: Determination of DAR (compound-to-antibody ratio) by LC-MS. As to conditions: drug (payload)-to-antibody fragment ratio of the conjugate. It counts as physicochemical. The protocol: DAR value of the cKIT ADC was evaluated by liquid chromatography-mass spectrometry (LC-MS). A compound-to-antibody ratio was extrapolated from LC-MS data for reduced and deglycosylated (when appropriate, i.e. when Fc is included) samples. LC-MS allows quantitation of the average number of molecules of linker-payload (compound) attached to an antibody in a conjugate sample.
Antibody and antibody fragment conjugates were analyzed to determine extent of conjugation. A compound-to-antibody ratio was extrapolated from LC-MS data for reduced and deglycosylated (where appropriate) samples. LC/MS allows quantitation of the average number of molecules of linker-payload (compound) attached to an antibody in a conjugate sample. High pressure liquid chromatography (HPLC) separates antibody into light and heavy chains, and under reducing conditions, separates heavy chain (HC) and light chain (LC) according to the number of linker-payload groups per chain. Mass spectral data enables identification of the component species in the mixture, e.g., LC, LC+1, LC+2, HC, HC+1, HC+2, etc. From the average loading on the LC and HC chains, the average compound to antibody ratio can be calculated for an antibody conjugate. A compound-to-antibody ratio for a given conjugate sample represents the average number of compound (linker-payload) molecules attached to a tetrameric antibody containing two light chains and two heavy chains.
With B1, the DAR was 0.9.

In the case of B2, the DAR turned out to be 4.

Take B3: the DAR amounted to 4.

With B4, the DAR came to 4.

For B5, the DAR was found to be 4.

For B6, the DAR stood at 4.

B7: the DAR is on record as 4.

For the molecule B8, the DAR was found to be 2.

For the molecule B9, the DAR is reported as 4.

Consider B10, for which the DAR is reported as 4.

Regarding B11, the DAR is 4.
